Screen size: about 220,000 compounds; about 2,300 (1%) were called active. This list was built around the results that the source calls inconclusive (neither active nor inactive); the mix of calls is not that of the screen. Calls come from the whole dose curve; as a rule, active = well fitted inhibition curve with a large enough effect; inconclusive = small, poorly fitted or top-dose-only effect, or effect the other way; inactive = no such curve, though single readings can be large or run the other way. Potencies of inconclusive entries are doubtful fits and often do not repeat.
target: Neuropeptide S receptor (Homo sapiens) (UniProt Q6W5P4); assay: qHTS Assay for Antagonists of the Neuropeptide S Receptor: cAMP Signal Transduction; conditions: CHO-NPSR cells, cAMP TR-FRET, antagonist mode; activity change, negative = inhibition: at 38.3 µM (top of the series) unless noted; note: nearly all actives have a fitted effect of over 50% in size
% is set by controls: 0 for no effect and ±100 for the full control effect; potency is the fitted concentration of half-maximal effect; tags give direction and shape of the fitted curve.

Chain of UniProt Q6W5P4 (Q6W5P4 whole entry, looked up): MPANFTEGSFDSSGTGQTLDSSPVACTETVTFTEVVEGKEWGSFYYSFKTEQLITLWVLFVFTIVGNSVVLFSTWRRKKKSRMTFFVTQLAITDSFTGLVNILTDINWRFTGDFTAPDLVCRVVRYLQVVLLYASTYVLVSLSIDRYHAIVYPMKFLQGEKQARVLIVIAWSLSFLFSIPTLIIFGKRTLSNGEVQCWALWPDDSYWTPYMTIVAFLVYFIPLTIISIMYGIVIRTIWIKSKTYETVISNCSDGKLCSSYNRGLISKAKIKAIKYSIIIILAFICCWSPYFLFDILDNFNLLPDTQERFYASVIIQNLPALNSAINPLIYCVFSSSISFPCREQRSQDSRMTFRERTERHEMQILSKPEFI

SMILES | Potency | activity change, negative = inhibition
O=c1c2ccccc2sn1-c1cc(S(=O)(=O)N2CCOCC2)ccc1N1CCOCC1 | inconclusive: 10 µM [inhibitor, single point] | 
CCOC(=O)CCc1c(C)c2ccc(OC(C)C(=O)OCC)c(C)c2oc1=O (stereo unspecified) | inconclusive: 15.8 µM [inhibitor, single point] | 
Cc1ccc(N2CN(Cc3ccco3)CNC2=S)cc1 | inactive | 
CCOC(=O)c1cc(CC)sc1N1C(=O)CC(Sc2ccccc2C(=O)O)C1=O (stereo unspecified) | inactive | 
O=C(C=C=Nc1ccccc1)C(=O)N=C=Cc1ccccc1 | inconclusive: 5.01 µM [activator, full curve] | 
Cc1cc2cc(CN(Cc3cccs3)C(=S)NCc3ccco3)c(=O)[nH]c2cc1C | inactive | 
O=C(/C(=C/c1ccc(Cl)cc1)c1nc2ccccc2[nH]1)c1ccccc1 | inconclusive: 3.98 µM [inhibitor, full curve, poor fit] | 
Cc1ccc(C)c(-n2c(-c3ccc(Br)cc3)csc2=NC(=O)c2ccccc2F)c1 | inconclusive: 3.16 µM [activator, full curve] | 
CC(C)c1ccc(C(N)=S)cc1 | inactive | 
CS(=O)(=O)c1ccc(S(=O)CC(=O)OCc2ccccc2)c([N+](=O)[O-])c1 (stereo unspecified) | inconclusive: 25.1 µM [inhibitor, single point] | 
COc1ccc(-c2nc(CS(=O)CC(=O)NCCCN3CCCC3)c(C)o2)cc1OC (stereo unspecified) |  | inconclusive: -31.8% [inhibitor] [at 46.1 µM]
CCc1cc2cc(C)ccc2nc1SCC(=O)Nc1cc(C)on1 | inconclusive: 25.1 µM [activator, single point] | 
CCCC(c1nnnn1C1CCCC1)N1CCN(C(=O)c2ccco2)CC1 (stereo unspecified) | active: 12.6 µM | 
N#Cc1c(N)nc(SCc2ccncc2)c(C#N)c1-c1cccs1 | inconclusive: 12.6 µM [inhibitor, single point] | 
Cc1ccc(/C(COc2ccccc2O)=N\O)cc1 | inactive | 
Cc1ccc2nsnc2c1S(=O)(=O)N(Cc1ccco1)Cc1cc2cccc(C)c2[nH]c1=O | inconclusive: 6.31 µM [inhibitor, partial curve] | 
O=C(NC(NC(=S)Nc1ccccc1)C(Cl)(Cl)Cl)c1cccc(Cl)c1 (stereo unspecified) | active: 12.6 µM | 
Cc1cccc(-n2c(SCC(=O)Nc3ncc(Cl)cc3Cl)nc3ccccc32)c1 | inconclusive: 10 µM [inhibitor, single point] | 
O=[N+]([O-])c1cc2c(cc1/C=N/n1c(-c3ccccc3)n[nH]c1=S)OCO2 | inconclusive: 2.51 µM [inhibitor, full curve] | 
O=S(=O)(NCc1cn2ccsc2n1)c1cccs1 | inactive | 
COc1cccc(-c2nnc(SCC(=O)N3CCOCC3)o2)c1 | inactive | 
CCC(CC)c1nnc(NC(=O)c2ccc3ccccc3n2)s1 | inconclusive: 10 µM [inhibitor, single point] | 

SMILES | Potency | activity change, negative = inhibition
COc1ccc(S(=O)(=O)NCC(c2cccnc2)N2CCN(c3ccccc3)CC2)cc1C (stereo unspecified) | inactive | 
CC(/C=N/NC(=O)c1cc(-c2ccncc2)nc2ccccc12)=C\c1ccco1 | inconclusive: 3.16 µM [activator, single point] | 
COC(=O)C1=C(O)/C(=C\c2ccc(O)c(OC)c2)N=C1C | inconclusive: 12.6 µM [inhibitor, partial curve] | 
CCOc1ccc(-n2c(N)c(C(=O)NCc3ccco3)c3nc4ccccc4nc32)cc1 | inconclusive: 12.6 µM [inhibitor, partial curve] | 
CC(C)(C)c1ccc(C(=O)CSc2nc3ccccc3c(=O)[nH]2)cc1 | inconclusive: 15.8 µM [inhibitor, single point] | 
Cc1cccc(NC(=O)N2CCC(c3nc4ccccc4o3)CC2)c1 | inconclusive: 10 µM [inhibitor, single point] | 
Fc1ccc(Nc2ccc3ccccc3n2)c(F)c1 | inactive | 
O=C(c1cc(-c2ccc(Cl)cc2)n(-c2ccc(Cl)c(Cl)c2)n1)N1CCOCC1 | inconclusive: 12.6 µM [inhibitor, single point] | 
Cc1cc(C(F)(F)F)c2c(N)c(C(=O)Nc3cc(C)on3)sc2n1 | inconclusive: 12.6 µM [activator, single point] | 
CCOC(=O)N1CCN(Cc2nc3c(c(=O)n(C)c(=O)n3C)n2Cc2cccc3ccccc23)CC1 | inconclusive: 25.1 µM [inhibitor, single point] | 
O=C(Nc1cccc(Cl)c1)C1C2CCC3C(CCC21)C3(Cl)Cl (stereo unspecified) | inconclusive: 12.6 µM [inhibitor, single point] | 
Cc1ncsc1C(=O)N1N=C2/C(=C/c3ccc(N4CCOCC4)cc3)CCCC2C1c1ccc(N2CCOCC2)cc1 (stereo unspecified) | inconclusive: 12.6 µM [inhibitor, partial curve, poor fit] | 
NC(=O)N/N=C\c1cc(Br)ccc1O | inactive | 
CC(C)(C)OC(=O)N1CCC(NC(=O)c2[nH]cnc2C(=O)N[C@@H](Cc2ccccc2)C(=O)OCc2ccccc2)CC1 | inconclusive: 25.1 µM [activator, single point] | 
CCN(CC)CCn1c(SCC(=O)Nc2ccc(F)cc2)nc2c(sc3ccccc32)c1=O | inconclusive: 12.6 µM [inhibitor, single point] | 
Cc1ccc(SCCNC(=O)c2ccc(C)c(S(=O)(=O)Nc3cccc(C)c3)c2)cc1 | inconclusive: 25.1 µM [inhibitor, single point] | 
CCN1C(=O)C(O)(CC(=O)c2ccc3c(c2)OCCO3)c2ccccc21 (stereo unspecified) | inactive | 
COc1cc(NS(=O)(=O)c2ccc(NC(=S)NC(=O)/C=C/c3ccco3)cc2)ncn1 | active: 10 µM | 
COc1ccc(Br)cc1C(=O)Nc1ccccc1-c1ccccc1 | inconclusive: 12.6 µM [inhibitor, single point] | 
COc1cc(C2C(C#N)=C(N)N(Nc3ccccc3)C3=C2C(=O)CC(C)(C)C3)ccc1OCc1ccccc1 (stereo unspecified) | inconclusive: 10 µM [inhibitor, single point] | 
Nc1ccccc1SSc1ccccc1N | inconclusive: 25.1 µM [inhibitor, single point] | 
Cc1cccc(-n2c(SCC(=O)O)nc3sc4c(c3c2=O)CCC4)c1 | inconclusive: 15.8 µM [inhibitor, single point] | 

SMILES | Potency | activity change, negative = inhibition
Cc1ccc(SCc2c(C(=O)N/N=C/c3ccccc3)nnn2-c2nonc2N)cc1 | inconclusive: 25.1 µM [inhibitor, single point] | 
CC(C)C(=O)NC(=S)Nc1ccccc1C(=O)Nc1ccccc1 | inactive | 
Cc1ccc(-n2c(C3CC3c3ccc(Cl)cc3)n[nH]c2=S)cc1 (stereo unspecified) | inconclusive: 12.6 µM [inhibitor, single point] | 
COCCN1CCN(c2cc(-c3ccccc3)nc3cc(-c4cccc(F)c4)nn23)CC1 | inconclusive: 10 µM [inhibitor, single point] | 
Cc1ccc2c(c1)-c1c(ssc1=S)C(C)(C)N2C(=O)c1ccco1 | inconclusive: 12.6 µM [inhibitor, single point] | 
COc1ccc(C(C)C)cc1S(=O)(=O)N1CCN(c2ccccc2)CC1 | inconclusive: 12.6 µM [activator, single point] | 
Oc1nc(Nc2ccc(F)cc2)sc1/C=C1\C=Nc2ccccc21 | inconclusive: 15.8 µM [activator, single point] | 
CC(C)(C)c1ccc(C(=O)OCCNC(=O)c2c(Cl)nc3ccccn23)cc1 | inconclusive: 25.1 µM [inhibitor, single point] | 
O=C(COC(=O)c1c(Cl)cccc1Cl)Nc1cc(Cl)ccc1Oc1ccccc1 | inconclusive: 20 µM [inhibitor, partial curve, poor fit] | 
CC1=CC2=NC(=O)/C(=C\c3cccn3CCOc3ccccc3C)C(=N)N2O1 | active: 10 µM | 
CCOC(=O)c1c(C)n(-c2ccc(C)cc2)c2c(C(C(C)=O)C(=O)O)c(Br)c(O)c(O)c12 (stereo unspecified) | active: 10 µM | 
O=C(Cc1c(O)c2ccccc2[nH]c1=O)N(Cc1ccccc1)Cc1ccccc1 | inconclusive: 1 µM [inhibitor, partial curve, poor fit] | 
Cc1cccc(Cn2c(=O)c3c(nc4n3CCCN4Cc3ccccc3)n(C)c2=O)c1 | inconclusive: 15.8 µM [inhibitor, partial curve, poor fit] | 
COc1ccc(-c2nc3cc(C)ccn3c2NCc2ccc3c(c2)OCO3)cc1 | inconclusive: 12.6 µM [activator, single point] | 
CCOC(=O)N1CCN(C(=O)CN(c2cccc(C)c2)S(=O)(=O)c2ccccc2)CC1 | inactive | 
O=C(Nc1ccc(Br)cc1)c1ccc(F)c(S(=O)(=O)NCc2cccs2)c1 | inconclusive: 5.01 µM [inhibitor, partial curve, poor fit] | 
CCN(c1ccccc1)S(=O)(=O)c1cc(C(=O)Nc2ccc(F)c(F)c2)ccc1F | inconclusive: 7.94 µM [inhibitor, single point] | 
Cc1ccnc2c(N3C(=O)C4C5c6ccccc6C(c6ccccc65)C4C3=O)cccc12 (stereo unspecified) | inconclusive: 20 µM [inhibitor, single point] | 
O=c1c2c3c(sc2[nH]c(=S)n1Cc1ccco1)CCC3 | inconclusive: 10 µM [activator, partial curve] | 
O=C(CSCc1ccccc1)NNC(=S)Nc1cccc(Cl)c1Cl | inactive | 
O=C(NCc1ccccc1)c1cc(-c2cccs2)on1 | inconclusive: 5.01 µM [inhibitor, single point] | 
CC(C)C(=O)NC(c1ccc([N+](=O)[O-])cc1)c1c(O)ccc2ccccc12 (stereo unspecified) | inconclusive: 12.6 µM [inhibitor, partial curve] | 

Source: PubChem BioAssay AID1461 (National Center for Advancing Translational Sciences (NCATS), 2008)
